The other results are listed elsewhere or left out. Sequences were assembled here from the parent chain. Inactive controls read about 0.05.
B1: TEV protease; numbered along this chain (parent)
chain: MGESLFKGPRDYNPISSSICHLTNESDGHTTSLYGIGFGPFIITNKHLFRRNNGTLVVQSLHGVFKVKDTTTLQQHLVDGRDMIIIRMPKDFPPFPQKLKFREPQREERICLVTTNFQTKSMSSMVSDTSCTFPSGDGIFWKHWIQTKDGQCGSPLVSTRDGFIVGIHSASNFTNTNNYFTSVPKNFMELLTNQEAQQWVSGWRLNADSVLWGGHKVFMVKPEEPFQPVKEATQL

Variants of: B1
Assay: raw area under fraction-flipped curve 0-4 h after induction (AUC4h, not background-subtracted), DNA-recorder readout of cleavage of the substrate (dimensionless); higher = more cleavage of the substrate by the protease variant
Conditions: temperature: 34 °C; time window: 0-4 h after rhamnose induction
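Note: Bxb1 expression induced with 0.2% (w/v) L-rhamnose at OD600 near 0.5, cultures sampled hourly, flipped fraction per protease–substrate barcode pair counted by paired-end Illumina sequencing.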

Variant	area with substrate ENLDFQS	area with substrate ENLEFQS	area with substrate ENLFFQS	area with substrate ENLHFQS	area with substrate ENLIFQS	area with substrate ENLKFQS	area with substrate ENLNFQS	area with substrate ENLPFQS	area with substrate ENLRFQS	area with substrate ENLSFQS	area with substrate ENLGFQS	area with substrate ENLLFQS	area with substrate ENLQFQS	area with substrate ENLMFQS	area with substrate ENLVFQS	area with substrate ENLWFQS
MGESLFKGPRDYNPISSSICHWTNESDGHTTSLYGIGFGPFIITNKHLFRRNNGTLVVQSLHGVFKVKDTTTLQQHLVDGRDMIIIRMPKDFPPFPQKLKFREPQREERICLVTTNFQTKSMSSMVSDTSCTFPSGDGIFWKHWIQTKDGQCGSPLVSTRDGFIVGIHSASNFTNTNNYFTSVPKNFMELLTNQEAQQWVSGWRLNADSVLWGGHKVFMVKPEEPFQPVKEATQL [L22W]	0.0466	0.0552	0.0533	0.051	0.0527	0.036	0.0533	0.0359	0.0457	0.0398						
MGESLFKGPRDYNPISSSICHLTNESDGHTTSLYGIGFGPFIITNKHLFRRNNGTLVVQSLHGVFKVKDTWTLQQHLVDGRDMIIIRMPKDFPPFPQKLKFREPQREERICLVTTNFQTKSMSSMVSDTSCTFPSGDGIFWKHWIQTKDGQCGSPLVSTRDGFIVGIHSASNFTNTNNYFTSVPKNFMELLTNQEAQQWVSGWRLNADSVLWGGHKVFMVKPEEPFQPVKEATQL [T71W]	0.06	0.0558	0.0877	0.0701		0.078	0.0613		0.0271	0.0576	0.0676	0.0617	0.0642			
MGESLFKGPRDYNPISSSICHLTNESDGHTTSLYGIGPGPFIITNKHLFRRNNGTLVVQSLHGVFKVKDTTTLQQHLVDGRDMIIIRMPKDFPPFPQKLKFREPQREERICLVTTNFQTKSMSSMVSDTSCTFPSGDGIFWKHWIQTKDGQCGSPLVSTRDGFIVGIHSASNFTNTNNYFTSVPKNFMELLTNQEAQQWVSGWRLNADSVLWGGHKVFMVKPEEPFQPVKEATQL [F38P]	0.0329		0.0407	0.0386		0.0425	0.0611			0.0295	0.0405	0.0386	0.0315	0.0443	0.0513	0.04
MGESLFKGPRDYNPISSSICHLTNESDGHTTSLYGIGFGPFIITNKHLFRRNNGTLVVQSLHGVFKVKDTTTLQQHLVDGRDMIIIRMPKDFPPFPQKLKFAEPQREERICLVTTNFQTKSMSSMVSDTSCTFPSGDGIFWKHWIQTKDGQCGSPLVSTRDGFIVGIHSASNFTNTNNYFTSVPKNFMELLTNQEAQQWVSGWRLNADSVLWGGHKVFMVKPEEPFQPVKEATQL [R102A]	0.0583	0.057	0.0873	0.0529	0.0679	0.0597	0.0631	0.0493				0.0335	0.0587	0.0503	0.0302	0.0724
MGESLFKGPRDYNPISSSICHLTNESDGHTTSLYGIGFGPFIITNKHLFRRNNGTLVVQSLHGVFKVKDTTTLQQHLVDGRDMIIIRMPKDFPPFPQKLKFREPMREERICLVTTNFQTKSMSSMVSDTSCTFPSGDGIFWKHWIQTKDGQCGSPLVSTRDGFIVGIHSASNFTNTNNYFTSVPKNFMELLTNQEAQQWVSGWRLNADSVLWGGHKVFMVKPEEPFQPVKEATQL [Q105M]	0.0665	0.0503	0.0936	0.0755		0.0753	0.0731	0.0545		0.0549	0.0661	0.0829	0.0716		0.0906	0.0561
MGESLFKGPRDYNPISSSICHLTNESDGHTTSLYGIGFGPFIITNKHLFRRNNGTLVVQSLHGVFKVKDTTTLQQHLVDGRDMIIIRMPKDFPIFPQKLKFREPQREERICLVTTNFQTKSMSSMVSDTSCTFPSGDGIFWKHWIQTKDGQCGSPLVSTRDGFIVGIHSASNFTNTNNYFTSVPKNFMELLTNQEAQQWVSGWRLNADSVLWGGHKVFMVKPEEPFQPVKEATQL [P94I]	0.0653	0.0999	0.103	0.0872	0.0837	0.0782	0.0638	0.0586		0.0627						
MGESLFKGPRDYNPISSKICHLTNESDGHTTSLYGIGFGPFIITNKHLFRRNNGTLVVQSLHGVFKVKDTTTLQQHLVDGRDMIIIRMPKDFPPFPQKLKFREPQREERICLVTTNFQTKSMSSMVSDTSCTFPSGDGIFWKHWIQTKDGQCGSPLVSTRDGFIVGIHSASNFTNTNNYFTSVPKNFMELLTNQEAQQWVSGWRLNADSVLWGGHKVFMVKPEEPFQPVKEATQL [S18K]	0.0378	0.0556	0.0994	0.074		0.0667	0.0578	0.0708	0.0534	0.0502	0.0546	0.0451	0.0672		0.087	0.0535
MGESLFKGPRDYNPISSSICHLTNESDGHTTSLYGIGFGPFIITNKHLFRRNNGTLVVQSLVGVFKVKDTTTLQQHLVDGRDMIIIRMPKDFPPFPQKLKFREPQREERICLVTTNFQTKSMSSMVSDTSCTFPSGDGIFWKHWIQTKDGQCGSPLVSTRDGFIVGIHSASNFTNTNNYFTSVPKNFMELLTNQEAQQWVSGWRLNADSVLWGGHKVFMVKPEEPFQPVKEATQL [H62V]	0.0659	0.0657	0.0812	0.0668		0.0766	0.0732	0.0104		0.0577			0.0651		0.0835	
MGESLFKGPRDYNPISSSICHLTNESDGHTTSLYGDGFGPFIITNKHLFRRNNGTLVVQSLHGVFKVKDTTTLQQHLVDGRDMIIIRMPKDFPPFPQKLKFREPQREERICLVTTNFQTKSMSSMVSDTSCTFPSGDGIFWKHWIQTKDGQCGSPLVSTRDGFIVGIHSASNFTNTNNYFTSVPKNFMELLTNQEAQQWVSGWRLNADSVLWGGHKVFMVKPEEPFQPVKEATQL [I36D]	0.0339	0.0448	0.0453	0.0419	0.0194	0.0477	0.0527	0.042	0.0355	0.0379	0.046	0.0404	0.0525		0.0462	0.0518
MGESLFKGPRDYNPISSSICHLTNESDGHTTSLYGIGFGPFIITNKHLFRRNNGTLVVQSLHGVFKVKDTTTLQQHLVDGRYMIIIRMPKDFPPFPQKLKFREPQREERICLVTTNFQTKSMSSMVSDTSCTFPSGDGIFWKHWIQTKDGQCGSPLVSTRDGFIVGIHSASNFTNTNNYFTSVPKNFMELLTNQEAQQWVSGWRLNADSVLWGGHKVFMVKPEEPFQPVKEATQL [D82Y]	0.0594		0.066		0.0523	0.0387	0.0628	0.053			0.0478	0.0565	0.0591			0.0567
